# In PubChem BioAssay AID1030 (National Center for Advancing Translational Sciences (NCATS), 2008):
# The whole screen tested about 220,000 compounds, of which about 16,000 (7.3%) were called active. This list was built around the results that the source calls inconclusive (neither active nor inactive); the mix of calls is not that of the screen. The call rests on the fitted dose curve; in most records, active means well fitted inhibition curve with a large enough effect (not every such curve was filed as active); inconclusive means small, poorly fitted or top-dose-only effect, or another doubt; inactive means no such curve, though single readings can be large or run the other way. No potency is given beside an inconclusive call; the fits are too rough.
# Target: Aldehyde dehydrogenase 1A1 (Homo sapiens) (UniProt P00352)
# Assay: qHTS Assay for Inhibitors of Aldehyde Dehydrogenase 1 (ALDH1A1);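 on activity, negative = inhibition: plate controls were no enzyme wells and a reference inhibitor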
# Settings: Purified ALDH1A1, NADH fluorescence, propionaldehyde substrate; series mostly up to 75.3 µM
# Potency means the concentration at half of the fitted maximal effect; tags describe the fitted curve by direction and shape.
# Chain of UniProt P00352 (P00352 whole entry, looked up): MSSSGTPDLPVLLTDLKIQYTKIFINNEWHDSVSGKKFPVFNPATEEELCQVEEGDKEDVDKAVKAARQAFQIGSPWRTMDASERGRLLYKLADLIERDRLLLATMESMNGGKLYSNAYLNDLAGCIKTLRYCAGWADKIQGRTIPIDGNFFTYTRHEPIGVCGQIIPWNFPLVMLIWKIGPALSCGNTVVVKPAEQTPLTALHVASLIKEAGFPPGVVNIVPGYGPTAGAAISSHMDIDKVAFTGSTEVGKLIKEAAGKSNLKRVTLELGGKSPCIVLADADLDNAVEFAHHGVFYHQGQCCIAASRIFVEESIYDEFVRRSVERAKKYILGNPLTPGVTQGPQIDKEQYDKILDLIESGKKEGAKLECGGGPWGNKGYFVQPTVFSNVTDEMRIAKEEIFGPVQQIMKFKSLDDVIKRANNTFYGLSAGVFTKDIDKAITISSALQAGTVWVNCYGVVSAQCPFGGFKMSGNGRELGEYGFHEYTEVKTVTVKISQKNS
Compound,Potency,"activity, negative = inhibition"
Cc1ccc(C)c2[nH]c(=O)c(CN(Cc3ccc4c(c3)OCO4)Cc3nnnn3Cc3ccco3)cc12,"inconclusive [inhibitor, partial curve]",
COc1ccc(OC)c(S(=O)(=O)N2CCC(C(=O)NC(C)c3ccccc3)CC2)c1 (stereo not given),inactive,
COc1cccc(/C=N/NC(=O)C(=O)NCc2cccnc2)c1OC,active: 15.8 µM,
O=C(CN1CCCCC1)Nc1ccc(S(=O)(=O)N2CCOCC2)cc1,inactive,
CCCN1Cc2cccc(C(=O)NC(CC(=O)OCC)c3ccc(C)cc3)c2C1=O (stereo not given),active: 12.6 µM,
CC(=O)NS(=O)(=O)c1ccc2sc(C)nc2c1,"inconclusive [inhibitor, single point]",
COc1ccc(-c2oc(/N=C/N3CCCC3)c(C#N)c2-c2ccc(OC)cc2)cc1,"inconclusive [inhibitor, partial curve]",
CCOC(=O)CSc1nc(-c2ccccc2)nc2ccc(F)cc12,"inconclusive [inhibitor, single point]",
Cc1nn(-c2ccccc2)c2nc(N)c(C#N)c(-c3ccc(F)cc3)c12,"inconclusive [inhibitor, partial curve]",
CC(C)C(=O)Nc1cccc(NC(=O)CCN2C(=O)c3ccccc3S2(=O)=O)c1,"inconclusive [inhibitor, single point]",
COC(=O)c1ccc(CSc2nnc(NC(=O)C3CC(=O)N(c4ccc5c(c4)OCCO5)C3)s2)cc1 (stereo not given),"inconclusive [inhibitor, single point]",
CCC(=O)Nc1ccc(Oc2ccc3c(c2)C(=O)N(c2ccc(O)cc2)C3=O)cc1,"inconclusive [inhibitor, partial curve]",
Cc1ccc(/C=C(\NC(=O)c2ccccc2)C(=O)NCCc2ccccn2)o1,active: 22.4 µM,
CC(=O)Nc1ccc(-c2c(C)cc3oc(=O)cc(-c4ccccc4)c3c2C)cc1,"inconclusive [inhibitor, single point]",
Cc1cc(C)c2c(=O)[nH]c(SCC(=O)Nc3ccc(N(C)C)cc3)nc2n1,"inconclusive [inhibitor, single point]",
COc1ccccc1-n1c(CNC(=O)COc2ccccc2)n[nH]c1=S,active: 2.24 µM,
Cc1ccc(-n2cnc3ncnc(-c4ccccc4)c32)cc1,"inconclusive [inhibitor, partial curve]",
Cc1cc(C)c(C(N)=O)c(Nc2cccc(Cl)c2)n1,inactive,
COc1ccccc1CNCC(=O)Nc1ccccc1-n1cccc1,"inconclusive [inhibitor, partial curve]",
COc1ccc(S(=O)(=O)N2Cc3ccccc3CC2C(=O)Nc2ccc3c(c2)OCO3)cc1 (stereo not given),"inconclusive [inhibitor, partial curve]",
O=C(Nc1cccc(-c2cn3c(n2)SCC3)c1)c1ccc(Br)o1,active: 15.8 µM,
CCOc1cc(CNCCO)cc(Br)c1OCc1ccc(Cl)cc1Cl,"inconclusive [inhibitor, single point]",
CC(C)Cc1nc2sc3c(NCc4ccco4)ncnc3c2c2c1COC(C)(C)C2,"inconclusive [inhibitor, single point]",

Compound,Potency,"activity, negative = inhibition"
CCCCC1=CC2=CC(=O)C(C)(OC(=O)CC)C(=O)C2=CN1CCOC (stereo not given),,inactive: 5.1% [at 13.5 µM]
COCCN(C(=O)CSc1ncc(C(F)(F)F)cc1Cl)c1c(N)n(Cc2ccccc2)c(=O)[nH]c1=O,inactive,
CC(=O)c1ccc(N2C(=O)NC3(CCCCC3)C2=O)cc1,inactive,
CC(C)(C)C1CCc2onc(C(=O)N3CCOCC3)c2C1 (stereo not given),active: 25.1 µM,
Cc1cc(/C=C(\C#N)C(=O)OCC#N)c(C)n1CC(C)C,active: 25.1 µM,
OCCC1CN(Cc2cccn2-c2cccnc2)CCN1Cc1ccc(F)cc1 (stereo not given),inactive,
C=CC[C@@H]1C=C[C@@H](O/N=C\[C@@H](NS(=O)(=O)c2ccc(C)cc2)[C@H](C)/C=C\CC(=O)OC)[C@@H](CO)O1,"inconclusive [inhibitor, partial curve, poor fit]",
Clc1cccc(OCCN2CCNCC2)c1,active: 17.8 µM,
O=C(OCC(=O)N1CCN(C(=O)c2ccco2)CC1)c1cc(-c2ccc(F)cc2)nc2ccccc12,"inconclusive [inhibitor, single point]",
Cc1nc(N=Nc2cc(S(=O)(=O)O)ccc2S(=O)(=O)O)c(COP(=O)(O)O)c(C=O)c1O,inactive,
NC(=O)c1c(NC(=O)c2cccs2)sc2c1CCCCCC2,"inconclusive [inhibitor, single point]",
O=C(O)c1ccc(Nc2ncnc3c2cnn3Cc2ccccc2)cc1,"inconclusive [inhibitor, single point]",
OC[C@@H]1CCCN1Cc1cn(-c2ccccc2)nc1-c1ccc2c(c1)OCO2,"inconclusive [inhibitor, single point]",
O=C(C[n+]1cc2ccccc2c2ccccc21)c1ccccc1,"inconclusive [inhibitor, single point]",
N#Cc1nccnc1S(=O)(=O)c1cccs1,active: 0.447 µM,
CC1(C)CC(=O)C(N=Nc2ccc(C(F)(F)F)cc2[N+](=O)[O-])=C(O)C1,active: 3.55 µM,
COc1ccccc1Cc1nc2ccccc2n1S(=O)(=O)c1ccc(Cl)cc1,inactive,
CCCN(CCC)CCNC(=O)c1cc2c(=O)n(C)c3ccccc3c2n1C,"inconclusive [inhibitor, partial curve]",
CCCn1c(SCC(=O)N2CCCC(C)C2)nnc1-c1ccccn1 (stereo not given),"inconclusive [inhibitor, single point]",
CCCCCCCCn1cnc2c(N)c(C)c(C)cc21,"inconclusive [inhibitor, single point]",
Cc1cccc(CCNC(=O)CCc2c(C)nc3ncnn3c2C)c1,"inconclusive [inhibitor, single point]",
COc1ccc(NC(=O)NC23CC4(C)CC(C)(CC(C)(C4)C2)C3)cc1OC,inactive,
